Assay results reported in patent publication US20250262167A1, “COMPOUNDS, TARGETS AND PATHWAYS FOR MACROPHAGE MODULATION” (Massachusetts Institute of Technology, priority 2020, published 2025).
At least one read-out could not be matched to a standard name with certainty.

Test system: M0 macrophages (hMDMs)
Experiment: Dosage response of cell shape change on M0 macrophages
Format: cell-based, human
Settings: Max Z-score from Michaelis-Menten equation, negative = round, positive = elongated

Structure (SMILES)	Max absolute Z-value
O=C(O)CN1C(=O)c2cccc3cccc(c23)C1=O [ALRESTATIN]	15.05
O=C1Cc2c([nH]c3ccc([N+](=O)[O-])cc23)-c2ccccc2N1 [Alsterpaullone]	13.9
COc1cc(Nc2c(C#N)cnc3cc(OCCCN4CCN(C)CC4)c(OC)cc23)c(Cl)cc1Cl [Bostunib]	23.5
[H]/N=C(\N/C(=N/[H])NCCCCCCNC(=N)NC(=N)Nc1ccc(Cl)cc1)Nc1ccc(Cl)cc1 [Chlorhexidine]	−13.45
COC(=O)Nc1nc2ccc(Sc3ccccc3)cc2[nH]1 [Fenbendazole]	−12.37
COCCCC/C(=N\OCCN)c1ccc(C(F)(F)F)cc1 [Fluvoxamine]	−7.38
Nc1ccccc1NC(=O)c1ccc(CNc2nccc(-c3cccnc3)n2)cc1 [Mocetinostat]	−15.14
O=C(Nc1ccc([N+](=O)[O-])cc1Cl)c1cc(Cl)ccc1O [Niclosamide]	−8.929
OC1(c2ccc(Cl)c(C(F)(F)F)c2)CCN(CCCC(c2ccc(F)cc2)c2ccc(F)cc2)CC1 [Penfluridol]	−4.873
O=c1[nH]c2ccccc2n1C1CCN(CCCC(c2ccc(F)cc2)c2ccc(F)cc2)CC1 [Pimozide]	−8.006
Cc1[nH]c(/C=C2\C(=O)Nc3ccc(S(=O)(=O)N(C)c4cccc(Cl)c4)cc32)c(C)c1C(=O)N1CCN(C)CC1 [Su11274]	17.8
CC(=O)O[C@H]1C(=O)[C@@]2(C)[C@H]([C@H](OC(=O)c3ccccc3)[C@]3(O)C[C@H](OC(=O)[C@H](O)[C@@H](NC(=O)c4ccccc4)c4ccccc4)C(C)=C1C3(C)C)[C@]1(OC(C)=O)CO[C@@H]1C[C@@H]2O [Taxol]	−6.681
